Data published in ChEMBL document CHEMBL4888484, “Replenishing the malaria drug discovery pipeline: Screening and hit evaluation of the MMV Hit Generation Library 1 (HGL1) against asexual blood stage Plasmodium falciparum ,using a nano luciferase reporter read-out” (2022).
Out of some 150,000 compounds screened, about 540 (0.36%) showed an effect of 50% or more. This is one part of the list.

test system: Plasmodium falciparum; test: Primary screen in NF54 nanoGlo assay, in single point, at 2uM, 72h; a lower Z score goes with more inhibition; type: functional, Erythrocyte; details: timepoint 72 hour

SMILES | % Inhibition | Z score
CC1=C[C@@H](CNCc2cccnc2)[C@H](C(C)C)C[C@H]1Cc1nnc(COc2ccc(F)cc2)o1 | 22% | -2.52
Cc1nn(-c2ncccn2)c2c1[C@@H](c1ccc(F)cc1Cl)CC(=O)N2 | 34% | -3.8
CC(C)[C@]1(C)NC(=O)N(Cc2cccc3cccnc23)C1=O | 5% | -0.48
Cc1cc([C@H](C)Nc2cnn(CC(C)C)c2)no1 | -8% | 0.96
Nc1c2c(-c3cccc(F)c3)nc(NCCc3ccccc3)nc2nn1-c1cccc(F)c1 | -5% | 0.65
CC1(C)CN(C(=O)Nc2ccccc2N2CCCC2)CCCO1 | 2% | -0.49
CC(=O)Nc1ccc(S(=O)(=O)N2CC[C@H](Oc3cnc4ccccc4n3)C2)c(C)c1 | 4% | -0.82
COC(=O)[C@@H](NC(=O)N1CCN(C(=O)N[C@H](C(=O)OC)C(C)C)CC1)C(C)C | -14% | 1.71
CC1CCCC(C(C)NC(=O)CCOC2CCOCC2)C1 (configuration not stated) | -2% | 0.28
Cc1ncc(C(C)C)c(NCc2n[nH]c(=O)[nH]2)n1 | -1% | 0.11
CCC1Oc2cc(C(C)Nc3nccc(OC)n3)ccc2NC1=O (configuration not stated) | -12% | 1.65
Cc1cc2occ(CC(=O)N[C@@H](Cc3c[nH]c4cc(F)ccc34)C(=O)O)c2cc1C | 39% | -5.06
Nc1c2c(-c3ccc(F)c(Cl)c3)nc(N3CCCCC3)nc2nn1-c1ccccc1 | -18% | 1.76
CC(=O)c1ccc(NC(=O)c2cccc(-c3noc(C4CCC4)n3)c2)cc1 | 3% | -0.45
CCN1CCN(c2nccc(C3CCCC3)n2)[C@@H](C)C1=O | -10% | 1.68
CCC(CC)c1n[nH]c2c1CN(Cc1nc(C)c(C)nc1C)CC2 | -6% | 0.85
Cc1ccc(CNC(=O)c2oc3ccc4c(c3c2C)[C@@H](O)CC(C)(C)O4)cc1 | 5% | -0.92
O=C(O)[C@H]1CCCN(C(=O)C2CC2c2ccc3ccccc3c2)C1 (some centres not stated) | -1% | 0.14
NC(=O)c1cncc(Oc2ccc(C(F)(F)F)nn2)c1 | -21% | 3.35
O=C(NCC1CCN(c2cc(-c3ccccc3)n[nH]2)CC1)c1n[nH]c2c1CCCC2 | -23% | 2.34
Cc1cc2nc(Cc3ccc(F)cc3)n([C@@H](C)C(=O)NCCc3ccccn3)c2cc1C | -15% | 1.75
CC1CCN(CC(=O)N2CCCCCC2)CC1 | -1% | 0.08
COc1ccc(NC(=O)c2ccc(OCC3CCOCC3)nc2)cc1Cl | -9% | 1.76
CCN1CCN(C(=O)[C@H](C)N(c2ccc(OC)cc2)c2nc(-c3ccc(OC)cc3)cs2)CC1 | 0% | 0.07
O=S(=O)(Nc1ccn2nccc2c1)c1ccc(F)c(Cl)c1 | 0% | -0.06
CN(CCc1ccccn1)C(=O)c1ccc2sc(N)nc2c1 | -9% | 1.36

SMILES | % Inhibition | Z score
CC(C)N1CCC(N2C(=O)O[C@H]3CN(Cc4ccc(F)c(F)c4)C[C@H]32)CC1 | -5% | 0.7
Cc1cccc(CS(=O)(=O)N2CC(=O)Nc3ccccc32)c1 | -10% | 1.87
CC1CCC2C(CCCN2C(=O)COCC2CCCO2)C1 (configuration not stated) | -6% | 0.9
COc1ccc(CNC(=O)c2cc(-c3sc(-c4ccc(C)cc4)nc3C)n[nH]2)cc1 | -6% | 0.86
O=C(N[C@@H]1CCCC[C@H]1NC(=O)C1CCN(C(=O)c2cccc(F)c2)CC1)c1ccc(F)cc1 | 29% | -3.3
Cn1cccc1CN1CC(Cc2nc(-c3cccnc3)no2)C1 | -13% | 1.82
CCOC(=O)[C@H]1CCCN(C(=O)CN2C(=O)COc3ccc(S(=O)(=O)N4CCOCC4)cc32)C1 | -14% | 1.83
CCc1c(C)sc2c1CCN(C(=O)Nc1cccc(C)c1C)[C@@H]2c1ccccc1 | 7% | -0.66
Cc1coc2ccc(NC(=O)NCCN3C(=O)CNC3=O)cc12 | -7% | 1.03
O=c1c2ccccc2cnn1CN1CCC2(CCCCC2)CC1 | -7% | 0.98
COc1ccc(CCNC(=O)CCS(=O)(=O)Cc2ccc(Cl)cc2)cc1OC | -6% | 1.02
COCC(=O)NC1CN(C(=O)c2cccc(Cl)c2C)C1 | -4% | 0.61
Cc1ccc(-c2nc3ccccc3n2CCNS(=O)(=O)c2ccc(C3CCCCC3)cc2)cc1 | -2% | 0.34
C=C(C)[C@H]1OCC[C@H]1C(=O)NC1CCCC1OC (some centres not stated) | -5% | 0.51
Cn1nc(C2CC2)c2c(C(=O)O)cc(-c3ccc(OC(F)F)cc3)nc21 | -32% | 3.72
Cc1cc(F)cc(C(=O)OC[C@H]2CCC(=O)N2)c1 | 0% | -0.08
CN(C(=O)c1cccnc1)[C@@H](Cc1ccc(F)cc1F)C1CCN(C(=O)CCC2CCCCC2)CC1 | 14% | -1.77
CN(C[C@H](O)C(F)(F)F)C(=O)c1ccc(C#N)cn1 | -15% | 1.32
O=C(O)c1cccc(S(=O)(=O)Nc2ccccc2N2CCc3sccc3C2)c1 | 0% | 0.05
C[C@@H]1CN(C(=O)c2ccccc2OC(F)F)C[C@H](C)N1C | -8% | 0.99
CCCC(=O)N1CCC(c2nnc(C(=O)Nc3ccc(F)cc3F)s2)CC1 | -22% | 2.05
CC(=O)N1C[C@@H](O)C[C@@H]1c1nc(-c2ccc3oc(N(C)C)nc3c2)no1 | -5% | 1.05
CCCc1nn(-c2cccc(Cl)c2)c(O)c1C(=O)CN(CCC)C(=O)c1ccc(CC)cc1 | 5% | -0.57
O=C(CS(=O)(=O)c1ccc2c(c1)S(=O)(=O)N=CN2)Nc1ccccc1Cl | -3% | 0.46
COc1ccc(C(=O)N2CCOc3ccc(CN4CCCCCC4)cc3C2)cc1OC | -21% | 2.2
